Data from the supplement of paper PMC3334620.
The full ranking holds about 33,000 sequences; the median of “E-score (-0.5 to 0.5)” is about -0.041, and the highest 2% start at about 0.37. The list shows a part of the results.

Target: T1, Ecm22 (UniProt Q05958)
T1 sequence: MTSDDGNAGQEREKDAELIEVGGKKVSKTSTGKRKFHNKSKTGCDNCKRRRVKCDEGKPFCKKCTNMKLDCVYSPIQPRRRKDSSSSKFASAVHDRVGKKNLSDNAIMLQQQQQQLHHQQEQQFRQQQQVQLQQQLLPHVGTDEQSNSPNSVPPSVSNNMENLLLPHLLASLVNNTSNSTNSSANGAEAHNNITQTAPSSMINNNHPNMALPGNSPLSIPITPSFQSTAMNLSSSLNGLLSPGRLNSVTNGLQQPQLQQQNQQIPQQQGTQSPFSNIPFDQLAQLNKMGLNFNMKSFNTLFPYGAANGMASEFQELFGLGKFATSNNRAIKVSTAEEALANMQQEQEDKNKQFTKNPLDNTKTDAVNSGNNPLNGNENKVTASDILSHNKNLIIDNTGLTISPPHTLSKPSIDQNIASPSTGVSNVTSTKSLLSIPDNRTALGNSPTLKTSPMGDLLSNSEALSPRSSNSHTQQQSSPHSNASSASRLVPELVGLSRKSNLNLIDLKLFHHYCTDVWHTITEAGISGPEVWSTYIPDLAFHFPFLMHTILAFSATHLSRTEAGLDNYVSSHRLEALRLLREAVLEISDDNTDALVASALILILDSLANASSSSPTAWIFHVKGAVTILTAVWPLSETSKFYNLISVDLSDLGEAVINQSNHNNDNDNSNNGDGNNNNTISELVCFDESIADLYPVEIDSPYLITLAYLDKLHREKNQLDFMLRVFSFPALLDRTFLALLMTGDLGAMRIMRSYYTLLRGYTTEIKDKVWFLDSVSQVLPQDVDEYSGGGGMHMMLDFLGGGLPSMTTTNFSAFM
Experiment: PBM E-score (8-mer binding enrichment) (E-score (-0.5 to 0.5)); higher = stronger / more preferred TF binding; most listed sequences are background and not binding sites
Conditions: protein concentration: 200 nM; construct: GST-full length
In short: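 GST-tagged yeast TFs (full-length or DNA-binding domain) were made by PURExpress in vitro transcription/translation and applied at about 100-200 nM to universal all-10-mer Agilent arrays. The arrays were made double-stranded by primer extension, on fresh or once-stripped slides. Bound protein was detected with fluorescent anti-GST, and scans were normalised with masliner. Each ungapped eight-base word, pooled with its reverse complement, received an E-score (modified Wilcoxon-Mann-Whitney statistic) from the Universal PBM Analysis Suite.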

Row | Sequence | PBM E-score
1 | CGCCCTAA | -0.27
2 | ATAATCTA | 0.0551
3 | GGCGTCCC | -0.0688
4 | ATAAGACC | -0.164
5 | CAGCCAGC | -0.276
6 | CGCCGGAA | -0.0229
7 | AACCTTGA | -0.248
8 | ACCGGCCT | -0.221
9 | CTGTCCCC | -0.109
10 | GACACCAA | 0.0388
11 | CAAGGGAA | -0.196
12 | GACTGTCA | -0.0879
13 | CTTTAATC | 0.0468
14 | CAGAAGTC | -0.251
15 | TATAGCAA | -0.0178
16 | CACGAAAG | -0.0739
17 | AGTGAACC | 0.131
18 | ACCGCGCC | -0.0104
19 | GTCTTAAA | -0.0381
20 | CATACGTC | 0.0749
21 | TGGCGGAA | -0.226
22 | TCCCCCAA | -0.309
23 | GGATTTAA | 0.0122
24 | ACCGGAAA | 0.0999
25 | CTGTGATC | -0.0572

Row | Sequence | PBM E-score
26 | AAATCTAT | 0.094
27 | GCCCATAC | -0.0281
28 | GATTATAC | 0.165
29 | ATCCCCGC | -0.00157
30 | AAGCCAGG | -0.232
31 | TGCTGCAA | 0.119
32 | CCGACCAG | -0.0384
33 | CTACTCGC | 0.142
34 | ATAGGTGA | 0.0133
35 | CAGAGCAA | 0.166
36 | CCGGAACC | -0.0325
37 | CATGACTC | -0.213
38 | CTGGTGCA | -0.199
39 | AGCTGCCG | -0.134
40 | ACCCCAGA | -0.302
41 | ACCCGCCA | 0.102
42 | AGACCCAG | -0.272
43 | GTCTACAA | 0.0235
44 | CTCGGACC | 0.299
45 | GAATAATC | 0.201
46 | CAGATTAA | -0.035
47 | AACCGTAA | 0.235
48 | GTCTGAAA | -0.124
49 | CTAAGCGC | 0.0189
50 | CAGCCTGC | -0.217

Row | Sequence | PBM E-score
51 | AAGGACGG | -0.123
52 | ACAAGCAA | 0.0804
53 | CGATGTAC | 0.206
54 | CCGTTCCG | 0.441
55 | ATGCACAC | 0.00417
56 | AATTCGTG | -0.036
57 | CATGATAG | -0.14
58 | CCTTGCTC | -0.127
59 | CAAAGCGA | 0.129
60 | CGAACTTC | 0.183
61 | AATACGGA | 0.249
62 | GGCGCCTA | -0.143
63 | CTTTGTTC | 0.115
64 | TAGAGCTA | -0.269
65 | AACGAGAG | 0.433
66 | AAGGGTGT | -0.307
67 | AGATTAAT | 0.105
68 | CCCACGGA | -0.0435
69 | ATGGTACG | 0.443
70 | GGTCTCAC | -0.223
71 | ACTCGACA | 0.035
72 | CTTTATAA | -0.128
73 | ACTGGTAT | 0.0582
74 | ACCGGGTC | 0.0691
75 | ACAATTGC | -0.123

Row | Sequence | PBM E-score
76 | CGGCGTAG | -0.00106
77 | ACATTTAC | -0.0083
78 | CTACGATC | 0.325
79 | CCTAGTGA | -0.208
80 | ATTCAGAC | -0.00563
81 | GGGCATAC | 0.00962
82 | CGTTTTTA | 0.235
83 | CTAAAGGC | -0.0656
84 | CTCTGTCA | -0.138
85 | GGTCTGCA | -0.171
86 | ACGCTCAT | -0.0709
87 | CGCTACGC | 0.138
88 | AAAGGGAC | -0.13
89 | ATTTCGGG | -0.12
90 | AAACTAGG | -0.12
91 | CTCAAAAA | -0.163
92 | TAAGAAAA | 0.0248
93 | CGTTCCAA | 0.365
94 | GGTCCCCA | -0.236
95 | GTTGAACA | -0.117
96 | AGCCCTCA | -0.122
97 | CCACAAAC | -0.0295
98 | GCCCGTAC | 0.396
99 | GTTTCATA | 0.116
100 | AACTTCGG | 0.0486

Row | Sequence | PBM E-score
101 | CGCAACGA | 0.448
102 | ATTTCAGA | -0.142
103 | TTCGGCAA | 0.169
104 | CAGATGCG | -0.0929
105 | CCTAGAGA | -0.098
106 | CCTACGAG | 0.339
107 | CTAGTGTA | -0.0315
108 | AAAAACCC | -0.182
109 | TCGGCGCA | -0.113
110 | GCAGCTGC | -0.117
111 | GATGCTCC | -0.0472
112 | CTATCAAA | -0.0898
113 | CCCCGAGC | -0.202
114 | CTCCGGGC | -0.0634
115 | TCAAGCCA | -0.0735
116 | AGATGCTG | -0.245
117 | GCGTGCCC | -0.0439
118 | GAAAGGTA | -0.0314
119 | CCGATTAG | 0.175
120 | AACATAAC | -0.00214
121 | ATCCTGGG | -0.168
122 | CCATTTAG | 0.0519
123 | CACCTGGA | -0.181
124 | TCTTGTAA | 0.0397
125 | CTCGGTTA | 0.383

Row | Sequence | PBM E-score
126 | ACGGAAGG | -0.0464
127 | CGAAAGTA | 0.0633
128 | CTTACTTC | 0.0693
129 | GGTCTGAC | -0.241
130 | CTGTCCAA | -0.0899
131 | CCACCCTA | -0.135
132 | GGGCGCCA | -0.251
133 | CCATTTCG | 0.0396
134 | GACTCGGA | 0.119
135 | AAAAAAGC | -0.187
136 | CCGATGGC | -0.0332
137 | CACTATCC | -0.0493
138 | GATCGGCA | -0.0142
139 | TCGACAGA | 0.0367
140 | CAATTCTG | -0.298
141 | TGCTAAAA | -0.147
142 | CGCGACCC | 0.07
143 | GCTGAATA | -0.0929
144 | AATGGTCA | -0.122
145 | TCAGTTCA | -0.0433
146 | ATTGTTTG | -0.129
147 | AACCCTGT | -0.0941
148 | GTGTGAAC | 0.106
149 | ATGGGCAA | 0.0376
150 | TGGGCACA | -0.3

Row | Sequence | PBM E-score
151 | AAGGTAAC | 0.186
152 | ACTTGCAA | 0.072
153 | GATTGCTA | -0.0307
154 | AGCCCTTG | -0.255
155 | TAGATCGA | -0.035
156 | GGGAGAAC | -0.137
157 | ATTTAGGG | -0.00056
158 | AGGATACT | -0.266
159 | ACGCATTA | -0.111
160 | ACCAGCAT | -0.118
161 | AGAATAGA | -0.11
162 | ACGGAAGT | 0.198
163 | CGGATGTC | 0.173
164 | ACATCAGG | -0.138
165 | CCGTCACC | -0.0526
166 | AGAGGGCT | -0.339
167 | ATGCCATA | 0.0201
168 | AACGTTCT | 0.197
169 | CATAGTCC | -0.173
170 | GATCTGCA | -0.0972
171 | TAATTTAA | 0.112
172 | AGAACCAT | -0.0792
